Assay results from patent publication US8318813B2, “Method of treating binge eating disorder” (LCS Group, LLC, priority 2007, dated 2012).

Test system: Patient with Major Depressive Disorders and Binge Eating Disorder
Experiment: Case report Patient 1: lisdexamfetamine dimesylate added to ZOLOFT
Conditions: by the time of 70 mg daily, with 100 mg ZOLOFT

In the case of `CS(=O)(=O)O.CS(=O)(=O)O.C[C@@H](Cc1ccccc1)NC(=O)[C@@H](N)CCCCN` [lisdexamfetamine dimesylate, (2S)-2,6-diamino-N-[(1S)-1-methyl-2-phenylethyl]hexanamide dimethanesulfonate], the “symptoms of inattention, forgetfulness, procrastination and physical restlessness” value is reported as “significant improvement”.
